# Laboratory results as given in article PMC6919601, “Identification of Plasmodium dipeptidyl aminopeptidase allosteric inhibitors by high throughput screening” (PLoS ONE, 2019).
# The campaign covered roughly 110,000 compounds. About 230 (0.21%) showed an effect of 50% or more. This is one part of the list.
# Molecular target: DPAP1 (Plasmodium falciparum, UniProt Q8IIJ9)
# Assay: primary screen, percent inhibition; read by cleavage of a fluorogenic dipeptide substrate; higher = more effect of the substance
# Design: species or system P. falciparum D10 trophozoite lysates; single well
# 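Further: 30 min substrate incubation versus DMSO and 10 µM JCP410 controls.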
# Chain of DPAP1 (Q8IIJ9 whole entry, looked up): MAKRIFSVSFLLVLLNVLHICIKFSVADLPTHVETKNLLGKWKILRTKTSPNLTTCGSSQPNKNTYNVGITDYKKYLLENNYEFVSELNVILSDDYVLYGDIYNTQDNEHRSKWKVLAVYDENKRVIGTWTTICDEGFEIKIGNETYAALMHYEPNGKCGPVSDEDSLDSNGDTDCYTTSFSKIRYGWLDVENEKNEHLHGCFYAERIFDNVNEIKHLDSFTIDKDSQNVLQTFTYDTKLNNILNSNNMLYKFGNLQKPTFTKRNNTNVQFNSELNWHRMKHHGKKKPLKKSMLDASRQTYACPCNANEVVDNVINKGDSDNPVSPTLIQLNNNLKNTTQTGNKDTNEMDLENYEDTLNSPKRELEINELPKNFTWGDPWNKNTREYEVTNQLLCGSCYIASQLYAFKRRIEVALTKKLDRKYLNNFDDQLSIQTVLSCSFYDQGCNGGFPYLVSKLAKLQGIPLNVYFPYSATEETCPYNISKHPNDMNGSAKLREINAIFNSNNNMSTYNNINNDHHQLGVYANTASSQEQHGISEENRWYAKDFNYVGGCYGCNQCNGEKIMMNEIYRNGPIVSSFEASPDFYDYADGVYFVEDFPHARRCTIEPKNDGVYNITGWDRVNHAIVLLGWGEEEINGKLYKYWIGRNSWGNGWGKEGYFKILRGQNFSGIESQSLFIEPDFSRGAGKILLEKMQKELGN
row,SMILES,% Inhibition @ 10 uM [%]
1,CC(C)(C)C(=O)Nc1ccc(N2CCN(S(C)(=O)=O)CC2)cc1,-4.49
2,Cc1noc(C)c1C1(O)CCCCCCCCC1,10.1
3,N#CC1=C(Nc2ccc(Br)cc2)CCC1,10.5
4,CCCC(=O)Nc1ccccc1NC(=O)c1ccc(Cl)cc1,-1.84
5,CCNC(=O)/C(C#N)=C/c1c(Oc2ccccc2C)nc2ccccn2c1=O,-1.43
6,Cn1c(C(Cc2ccccc2)NC(=O)C(C)(C)C)nc2ccccc21 (stereo not drawn),-1.29
7,CCOC(=O)c1ccc2nsnc2c1,-11.9
8,Cc1ccc(SC2=NS(=O)(=O)c3ccccc32)c(C)c1,-5.94
9,Cc1ccccc1-c1nc2s/c(=C\c3ccccc3F)c(=O)n2n1,-1.18
10,CCN1CCC(C#N)(NC(=O)[C@H](Cc2c(F)cccc2F)NC(=O)c2ccc(-c3ccccc3Cl)cc2)CC1,-3.48
11,COc1ccc2nc(NC(=O)c3cc(N)cc(N)c3)sc2c1,7.16
12,COc1ccc(C)cc1NC(=O)CN(Cc1ccc(F)cc1)S(=O)(=O)c1ccccc1,-5.35
13,O=C(NC(C(=O)c1ccccc1)N1CCCCCC1)c1ccco1 (stereo not drawn),-5.14
14,Cc1cc(C)c2oc(-c3ccc(NC(=O)c4ccc(C)c([N+](=O)[O-])c4)cc3)nc2c1,3.03
15,O=C1C2ON(c3ccccc3)C(c3ccc(O)cc3)C2C(=O)N1c1ccccc1 (stereo not drawn),-6.08
16,CCCCn1/c(=N\C(=O)/C=C/c2ccccc2)c(C(=O)OCC)cc2c(=O)n3ccccc3nc21,-0.363
17,COc1ccccc1-c1cc(=O)n(CC(=O)N2CCOCC2)c2c1CCCC2,2.04
18,Cc1ccccc1NC(=O)c1ccc(C)c(S(=O)(=O)N2CCOCC2)c1,2.4
19,CCOc1cccc(/C=C2\SC(c3ccc(C)cc3)=NC2=O)c1O,31.4
20,N#C/C(=C/c1ccc(O)cc1)c1nc(-c2ccccc2)cs1,15.7
21,CCOC(=O)/C(C#N)=C/NC(=O)NC(C)(C)C,-4.06
22,C=CCSc1ncc(Cl)c(C(=O)NCc2ccc(C)cc2)n1,-1.16
23,Oc1cc(-c2ccccc2)nc2nc(C(F)(F)F)nn12,-4.78
24,CC[C@@H](C)[C@H](NC(=O)c1cccc(CN)c1)C(=O)N[C@@H](CCc1ccccc1)C(=O)CO,-3.97
25,CCOC(=O)c1cc2c(=O)n3ccccc3nc2n(CCCO)c1=N,-1.92
26,CCn1cc(C(=O)O)c(=O)c2cc(Br)ccc21,-3.56
27,COc1cccc(-c2nc(-c3ccc(Br)cc3)no2)c1,3.53
